Read-outs that look alike come from different tables or passages of the source.

Assay [1] has as its target T1, Human CDCP1, His Tag (KACTUS, Cat.No. CDC-HM101) (human, UniProt Q9H5V8 30-667, limits assumed).
T1 construct: Bought protein coated on ELISA plates; also called human CDCP1 antigen; CDCP1 antigen; not shown: His tag
T1 sequence (looked up): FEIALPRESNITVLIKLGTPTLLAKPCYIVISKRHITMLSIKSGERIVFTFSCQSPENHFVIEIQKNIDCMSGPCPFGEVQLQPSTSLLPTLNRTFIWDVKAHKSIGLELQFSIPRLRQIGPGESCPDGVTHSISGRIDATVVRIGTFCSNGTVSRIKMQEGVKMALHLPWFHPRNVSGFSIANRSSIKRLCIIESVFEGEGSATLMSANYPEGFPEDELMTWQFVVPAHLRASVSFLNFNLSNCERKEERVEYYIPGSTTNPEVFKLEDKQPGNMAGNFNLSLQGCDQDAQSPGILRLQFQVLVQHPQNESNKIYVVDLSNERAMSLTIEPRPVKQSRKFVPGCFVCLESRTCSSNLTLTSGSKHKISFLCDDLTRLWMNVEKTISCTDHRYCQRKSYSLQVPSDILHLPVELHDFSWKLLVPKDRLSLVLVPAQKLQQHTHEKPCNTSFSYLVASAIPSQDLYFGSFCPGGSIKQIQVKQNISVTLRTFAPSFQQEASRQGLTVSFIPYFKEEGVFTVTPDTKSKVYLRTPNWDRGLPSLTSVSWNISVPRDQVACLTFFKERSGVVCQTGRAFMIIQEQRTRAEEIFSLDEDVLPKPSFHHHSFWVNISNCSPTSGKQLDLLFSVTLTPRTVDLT
The assay can be described thus: ELISA, plate-coated CDCP1 His Tag 0.5 ug/mL, four-parameter fit. In general terms: ELISA stands for enzyme-linked immunosorbent assay.

The target of assay [2] is T1, Human CDCP1, His Tag (KACTUS, Cat.No. …). Described as above. This is another data set of the same source.
For assay [3], the target named is T2, human CDCP1 endogenously expressed on tumor cells (HCT116, SW480, HT-29, LNCaP) (human, UniProt Q9H5V8 30-836).
T2 construct: whole, on cells; also called fl-CDCP1
T2 sequence (looked up): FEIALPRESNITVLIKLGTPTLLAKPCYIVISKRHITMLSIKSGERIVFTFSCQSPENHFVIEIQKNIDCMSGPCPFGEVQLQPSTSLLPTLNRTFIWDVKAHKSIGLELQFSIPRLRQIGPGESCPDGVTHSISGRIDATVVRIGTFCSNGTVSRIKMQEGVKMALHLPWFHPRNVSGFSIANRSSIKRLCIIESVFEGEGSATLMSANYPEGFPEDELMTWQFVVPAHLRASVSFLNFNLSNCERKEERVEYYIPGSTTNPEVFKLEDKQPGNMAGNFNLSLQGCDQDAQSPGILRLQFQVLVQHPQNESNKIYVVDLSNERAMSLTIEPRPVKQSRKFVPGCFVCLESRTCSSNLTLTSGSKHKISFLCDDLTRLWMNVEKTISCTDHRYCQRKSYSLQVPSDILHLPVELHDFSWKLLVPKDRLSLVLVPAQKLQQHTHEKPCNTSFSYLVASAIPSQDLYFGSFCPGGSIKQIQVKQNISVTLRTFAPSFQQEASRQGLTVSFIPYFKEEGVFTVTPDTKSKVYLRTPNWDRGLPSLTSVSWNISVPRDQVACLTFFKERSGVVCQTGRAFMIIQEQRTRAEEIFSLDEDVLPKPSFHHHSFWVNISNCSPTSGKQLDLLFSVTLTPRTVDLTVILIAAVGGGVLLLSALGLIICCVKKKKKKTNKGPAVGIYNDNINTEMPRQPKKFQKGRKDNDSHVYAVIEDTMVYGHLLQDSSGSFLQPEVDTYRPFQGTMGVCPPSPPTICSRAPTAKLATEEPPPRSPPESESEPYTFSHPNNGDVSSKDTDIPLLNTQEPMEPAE
The assay can be described thus: flow cytometry on HCT116 cells endogenously expressing human CDCP1. Background: A flow cytometer gives signals particle by particle.

Assay [4] concerns the target T2, human CDCP1 endogenously expressed on …. Described as above. This is another data set of the same source.
Assay [5] has the same target. The assay can be described thus: cell-based or functional assay.
The target is the same in assay [6]. Kind of assay: flow cytometry on HCT116 cells endogenously expressing human CDCP1. This is another data set of the same source.
Assay [7] has as its target T1, Human CDCP1, His Tag (KACTUS, Cat.No. …). Kind of assay: ELISA, plate-coated CDCP1 His Tag 0.5 ug/mL, four-parameter fit. The source holds these as a separate data set.
Assay [8] addresses T2, human CDCP1 endogenously expressed on …. Kind of assay: flow cytometry on HCT116 cells endogenously expressing human CDCP1. This is another data set of the same source.

B1: MHAB10-16 (Fc fusion)
chain: QLQLVESGGGLVQPGGSLRLSCAASGSDVSANGMVWHRQAPGKQREWVAVISSSGSTNYADSVKGRFTISRDSDKNTMYLQMNNLKPEDTAVYLCGVAHYGQTYWGKGTLVTVSS[human IgG1 Fc with changes cut from this listing]
notes: MW printed 76kDa; also called parental MHAB10-16
A word on the EC50: it is the concentration giving half of the maximal effect. A higher EC50 goes with a need for much substance. For B1, in assay [1], the half-maximal effective concentration (EC50) is 0.00297 µg/mL, the Top turned out to be 1.61 OD450 and the bottom was 0.0494 OD450. Moreover, in assay [2], the concentration giving a half-maximal response (EC50) amounted to 0.00545 µg/mL, the Top is 1.79 OD450 and the bottom was found to be 0.0448 OD450. In assay [3], this molecule returned an EC50 of 0.0642 µg/mL, a Top of 61600 MFI and a bottom of 857 MFI. In assay [4], the EC50 turned out to be 0.0553 µg/mL, the Top is 56200 MFI and the bottom was 410 MFI. Besides, in assay [5], the “Bottom, endocytosis-mediated cell killing (Fab-ZAP, HCT116 cells)” value (“Bottom … (Fab-ZAP, HCT116 cells)” for short) came out at 9.83%; the “EC50 (pM), endocytosis-mediated cell killing (Fab-ZAP, HCT116 cells)” value (shortened to “EC50 (pM)”) amounted to 16.8 pM; the “Top, endocytosis-mediated cell killing (Fab-ZAP, HCT116 cells)” value (“Top, endocytosis-mediated cell killing” for short) worked out at 67.6%.

B2: MHAB10-16-12 (Fc fusion)
chain: QLQLVESGGGLVQPGGSLRLSCAASGSDVSANGMVWHRQAPGKGREWVAVISSSGSTNYADSVKGRFTISRDNSKNTMYLQMNSLRPEDTAVYLCGVAHYGQTYWGKGTLVTVSS[human IgG1 Fc with changes cut from this listing]
notes: Humanized nanobody-Fc fusion, second round
In assay [1], B2 displayed an EC50 of 0.00417 µg/mL, a Top of 1.6 OD450 and a bottom of 0.0517 OD450. Further, in assay [4], it took 0.0741 µg/mL to reach a half-maximal effect (EC50), the Top was found to be 53900 MFI and the bottom was 680 MFI.

B3: MHAB10-16-3 (Fc fusion)
chain: EVQLVESGGGLVQPGGSLRLSCAASGSDVSANGMVWHRQAPGKGREWVAVISSSGSTNYADSVKGRFTISRDNSKNTMYLQMNSLRPEDTAVYLCGVAHYGQTYWGKGTLVTVSS[human IgG1 Fc with changes cut from this listing]
notes: Humanized nanobody-Fc fusion, first round; MW printed 76kDa
In assay [2], B3 returned an EC50 of 0.00298 µg/mL, a Top of 2.15 OD450 and a bottom of 0.0343 OD450. Besides, in assay [3], the EC50 came out at 0.074 µg/mL, the Top was found to be 64000 MFI and the bottom is 1100 MFI. For the same molecule, in assay [5], the “Bottom … (Fab-ZAP, HCT116 cells)” value is 13.1%; the “EC50 (pM)” value is about 31.8 pM; the “Top, endocytosis-mediated cell killing” value is 75.6%.

B4: MHAB10-16-15 (Fc fusion)
chain: QLQLVESGGGLVQPGGSLRLSCAASGSDVSANGMVWHRQAPGKQREWVAVISSSGSTNYADSVKGRFTISRDNSKNTMYLQMNSLRPEDTAVYLCGVAHYGQTYWGKGTLVTVSS[human IgG1 Fc with changes cut from this listing]
notes: as for B2
In the case of B4, in assay [6], the midpoint of the response, the EC50, lay at 0.0963 µg/mL; the Top amounted to 53900 MFI; the bottom worked out at 695 MFI. Also, in assay [7], the EC50 came to 0.00489 µg/mL, the Top stood at 1.58 OD450 and the bottom came to 0.051 OD450.

B5: MHAB10-16-4 (Fc fusion)
chain: EVQLVESGGGLVQPGGSLRLSCAASGSDVSANGMVWHRQAPGKGREWVAVISSSGSTNYADSVKGRFTISRDNSKNTMYLQMNSLRPEDTAVYYCGVAHYGQTYWGKGTLVTVSS[human IgG1 Fc with changes cut from this listing]
notes: as for B3
In assay [2], B5 yielded an EC50 of 0.00382 µg/mL, a Top of 2.18 OD450 and a bottom of 0.0462 OD450. In assay [3], this molecule yielded an EC50 of 0.0675 µg/mL, a Top of 64700 MFI and a bottom of 700 MFI. In addition, in assay [5], the “Bottom … (Fab-ZAP, HCT116 cells)” value turned out to be 12.9%; the “EC50 (pM)” value is 21.2 pM; the “Top, endocytosis-mediated cell killing” value was 73.2%.

B6: MHAB10-16-11 (Fc fusion)
chain: QLQLVESGGGLVQPGGSLRLSCAASGSDVSANGMVWHRQAPGKGREWVAVISSSGSTNYADSVKGRFTISRDSDKNTMYLQMNSLRPEDTAVYLCGVAHYGQTYWGKGTLVTVSS[human IgG1 Fc with changes cut from this listing]
notes: as for B2
With B6, in assay [1], the EC50 is 0.00477 µg/mL, the Top came out at 1.59 OD450 and the bottom came out at 0.0522 OD450. In assay [4], this molecule showed an EC50 of 0.0695 µg/mL, a Top of 53400 MFI and a bottom of 818 MFI.

B7: MHAB10-16-13 (Fc fusion)
chain: QLQLVESGGGLVQPGGSLRLSCAASGSDVSANGMVWHRQAPGKGREWVAVISSSGSTNYADSVKGRFTISRDNSKNTMYLQMNSLRPEDTAVYYCGVAHYGQTYWGKGTLVTVSS[human IgG1 Fc with changes cut from this listing]
notes: as for B2
As for B7, in assay [1], a half-maximal response (EC50) required 0.00487 µg/mL, the Top was determined as 1.59 OD450 and the bottom was 0.054 OD450. Also, in assay [4], the EC50 came to 0.0726 µg/mL, the Top worked out at 54200 MFI and the bottom turned out to be 637 MFI.

B8: MHAB10-16-5 (Fc fusion)
chain: EVQLVESGGGLVQPGGSLRLSCAASGSDVSANGMVWHRQAPGKGREWVAVISSSGSTNYADSVKGRFTISRDSDKNTMYLQMNSLRPEDTAVYYCGVAHYGQTYWGKGTLVTVSS[human IgG1 Fc with changes cut from this listing]
notes: as for B3
Take B8: in assay [2], the concentration giving a half-maximal response (EC50) worked out at 0.0036 µg/mL, the Top amounted to 2.17 OD450 and the bottom amounted to 0.0387 OD450. In assay [8], this molecule registered an EC50 of 0.072 µg/mL, a Top of 63000 MFI and a bottom of 984 MFI.

B9: MHAB10-16-2 (Fc fusion)
chain: EVQLVESGGGLVQPGGSLRLSCAASGSDVSANGMVWHRQAPGKGREWVAVISSSGSTNYADSVKGRFTISRDSDKNTMYLQMNSLRPEDTAVYLCGVAHYGQTYWGKGTLVTVSS[human IgG1 Fc with changes cut from this listing]
notes: as for B3
In assay [2], B9 came in with an EC50 of 0.00363 µg/mL, a Top of 2.16 OD450 and a bottom of 0.0455 OD450. For the same molecule, in assay [3], the EC50 was found to be 0.08 µg/mL, the Top worked out at 63400 MFI and the bottom is 1180 MFI.

B10: MHAB10-16-1 (Fc fusion)
chain: EVQLVESGGGLVQPGGSLRLSCAASGSDVSANGMVWHRQAPGKQREWVAVISSSGSTNYADSVKGRFTISRDSDKNTMYLQMNSLRPEDTAVYLCGVAHYGQTYWGKGTLVTVSS[human IgG1 Fc with changes cut from this listing]
notes: as for B3
On to B10, for which, in assay [2], the concentration giving a half-maximal response (EC50) is 0.00411 µg/mL, the Top was found to be 2.18 OD450 and the bottom turned out to be 0.0443 OD450. In assay [3], this molecule had an EC50 of 0.0784 µg/mL, a Top of 62200 MFI and a bottom of 1130 MFI.

For the origin of these results see patent publication EP4763988A1 (Minghui Pharmaceutical (Hangzhou) Ltd., dated 2025).
